This is an account of results in ChEMBL document CHEMBL4888484, “Replenishing the malaria drug discovery pipeline: Screening and hit evaluation of the MMV Hit Generation Library 1 (HGL1) against asexual blood stage Plasmodium falciparum ,using a nano luciferase reporter read-out” (2022).

The campaign covered roughly 150,000 compounds. About 540 (0.36%) showed an effect of 50% or more. Some of the results follow.

In this assay the test system is Plasmodium falciparum. Briefly: Primary screen in NF54 nanoGlo assay, in single point, at 2uM, 72h; a lower Z score goes with more inhibition. To be noted: timepoint 72 hour. It is filed as functional, Erythrocyte.
On to `Cc1ccccc1S(=O)(=O)N1CCC(n2cnc3ccc(Cl)cc3c2=O)CC1`, for which the “% Inhibition” value is on record as -10% and the Z score was determined as 1.12.
In the case of `CCN(CC)CCN(C)C(=O)c1cnn(-c2nccc(-c3ccc(OC)c(F)c3)n2)c1C1CC1`, the “% Inhibition” value was 5% and the Z score is -0.54.
Take `CC(=O)c1ccc(S(=O)(=O)N[C@H]2CCN(c3ccc(C)c(C)c3)C2=O)cc1`: the “% Inhibition” value is 2% and the Z score is -0.35.
As to `CC(=O)N(C)C[C@H]1CCN(S(=O)(=O)c2ccccc2Cl)C[C@H]1N(C)C`, the “% Inhibition” value is -12% and the Z score is recorded as 1.54.
`CC(=O)Nc1ccc(S(=O)(=O)NCCCc2cc3ccccc3o2)cc1`: the “% Inhibition” value was -2% and the Z score is listed as 0.3.
In the case of `O=C(NC[C@H]1CC[C@@H](CO)O1)Nc1nc(CC(F)(F)F)cs1`, the “% Inhibition” value stood at 1% and the Z score was -0.08.
As for `CCn1ccc([C@H](C)NC(=O)c2cc(-c3ccc(C)cc3)nc3c2c(C)nn3CC)n1`, the “% Inhibition” value was 32% and the Z score was -3.63.
Turning to `O=C1CNC(=O)N1Cc1nc(-c2ccncc2)no1`, the “% Inhibition” value is -3% and the Z score is listed as 0.58.
Turning to `N#Cc1cc(F)c(N2CCC(NC(=O)CC3CCCC3)CC2)c(F)c1`, the “% Inhibition” value was -6% and the Z score came out at 0.85.
Taken in the same sequence, the figures for `O=S(=O)(c1cccc2nsnc12)N1CC[C@H](c2ccc3c(c2)OCO3)C1` were 2% and -0.3.
On the same counts, the results for `CCOC(=O)Nc1ccc2c(c1)N(C(=O)CN1CCCCC1)c1ccccc1C=C2` are -12% and 2.35.
Consider `O[C@H]1CCCN(c2cccc(C(F)(F)F)n2)CC1`, for which the “% Inhibition” value was -3% and the Z score was 0.36.
As to `C[N+]1(C/C=C/C(O)(c2ccccc2)c2ccccc2)CCCCC1`, the “% Inhibition” value came out at 12% and the Z score is -1.05.
In the case of `CCc1cccc(NC(=O)CN2CC[S+]([O-])CC2)c1`, the “% Inhibition” value is reported as -10% and the Z score was found to be 1.26.
For the molecule `O=C(COCC1CC1)Nc1ncc2[nH]ccc2c1Br`, the “% Inhibition” value is recorded as -3% and the Z score turned out to be 0.34.
On the same counts, the results for `Cc1nc(N)sc1-c1cc([C@@H]2CC=CCC2)c(C#N)c(N)n1` are 3% and -0.5.
Consider `Cc1cc(N)n(CC(=O)N[C@H](c2cccs2)C2CCCCC2)n1`, for which the “% Inhibition” value is listed as -9% and the Z score amounted to 1.08.
On to `O=C(Cn1nc(-c2ccccc2)cc(NC(=O)c2ccccc2)c1=O)Nc1ccccc1Cl`, for which the “% Inhibition” value was -8% and the Z score is given as 1.3.
As to `C[C@@H](CNC1(CO)CC1)c1cccc(Cl)c1`, the “% Inhibition” value is recorded as -15% and the Z score was found to be 2.21.
On the same counts, the results for `Cc1ccc(Oc2nc(N3CCC(C)CC3)nc3c2CN(C(=O)Nc2ccc(C(C)C)cc2)CC3)cc1` are 2% and -0.36.
For the molecule `Cc1cc(S(=O)(=O)NC(=O)Cc2c(C)cccc2C)c(C)o1`, the “% Inhibition” value is listed as 5% and the Z score is recorded as -0.46.
For `Cc1cc(N2CC[C@H](NCCC(C)C)C2=O)n(C)n1`, the “% Inhibition” value is 2% and the Z score is given as -0.24.
Regarding `Cc1cc(C(=O)N(Cc2ccccn2)c2ccc(F)cc2)c2ccccc2n1`, the “% Inhibition” value is recorded as 0% and the Z score was -0.04.
As for `CC1(C)C[C@H](NC(=O)Cc2ccc(-n3cnnc3)cc2)CO1`, the “% Inhibition” value was -17% and the Z score is 1.82.
With `Cc1ocnc1-c1noc(-c2n[nH]c(=O)c3ccccc23)n1`, the “% Inhibition” value is -12% and the Z score was 1.36.
`CC(C)C(=O)N(C)Cc1ccc(C(=O)N2CCc3[nH]ncc3C2)cc1`: the “% Inhibition” value is on record as 1% and the Z score is -0.1.
In the case of `CN(C(=O)c1noc2c1CCCC2)c1ccccc1Cl`, the “% Inhibition” value is recorded as -1% and the Z score is given as 0.13.
As for `CC1CC(C)(C)CCC1NC(=O)NC1CCN(C)C1=O` (stereo unspecified), the “% Inhibition” value is 33% and the Z score is recorded as -4.44.
As to `CCc1nn2c(c1-c1ccc(OC)c(S(=O)(=O)N3CCCCCC3)c1)NC(=O)CCC2=O`, the “% Inhibition” value was determined as 3% and the Z score is -0.31.
Turning to `CNC(=O)[C@@H]1CCCN1Cc1cnns1`, the “% Inhibition” value is reported as -3% and the Z score is recorded as 0.49.
On to `Cc1nccc(CNC(=O)N2CCC[C@H]2COc2ccc(F)cc2)n1`, for which the “% Inhibition” value is -15% and the Z score is given as 1.99.
On to `CCc1ccc(-c2cc(C(F)(F)F)on2)cc1S(=O)(=O)NCc1ccccc1OC`, for which the “% Inhibition” value was -1% and the Z score was 0.18.
Consider `CCCC(=O)N(Cc1cccc(OS(=O)(=O)CC)c1)CC(C)C`, for which the “% Inhibition” value is given as -3% and the Z score came out at 0.41.
With `Cc1noc(C(F)F)c1C(=O)NCc1cc2n(n1)CCCO2`, the “% Inhibition” value worked out at 9% and the Z score is reported as -1.01.
Taken in the same sequence, the figures for `CCOC(=O)c1sc(N)nc1CC` were -2% and 0.23.
Regarding `Cc1c(S(N)(=O)=O)sc(C(=O)N[C@@H](C)c2ccc(F)cc2OC(F)F)c1Cl`, the “% Inhibition” value was -10% and the Z score turned out to be 1.57.
Take `CC[C@H](Nc1nc(C)nc2c1CCNC2)c1ccc(C)cc1C`: the “% Inhibition” value was -7% and the Z score came out at 0.65.
For the molecule `CC(C)Cc1nc(NC(=O)c2n[nH]c3c2CCC3)n[nH]1`, the “% Inhibition” value is -11% and the Z score was 1.47.
As to `Cc1csc2c(N3CCC[C@H](N4CCCCC4)C3)ncnc12`, the “% Inhibition” value is -8% and the Z score is 0.83.
`O=C(NC[C@H]1CCCO1)c1cccc(NC(=O)c2nnc(COc3ccccc3)s2)c1`: the “% Inhibition” value turned out to be 4% and the Z score is on record as -0.54.
For `Cc1ccc(C2CCN(C(=O)[C@H]3CCn4ccnc4C3)CC2)cn1`, the “% Inhibition” value is recorded as 5% and the Z score was -0.92.
On the same counts, the results for `CCN([C@H]1CCCc2cccnc21)S(=O)(=O)c1ccnn1C` are -19% and 2.46.
As to `Cc1cc(C)cc(N2CCC(N3C[C@H](O)[C@@H](N4CCN(C)CC4)C3)CC2)c1`, the “% Inhibition” value is given as -1% and the Z score came to 0.1.
For the molecule `CC(C)c1ccc(N2C(=O)CN(CCc3ccc(S(N)(=O)=O)cc3)[C@H]3CS(=O)(=O)C[C@H]32)cc1`, the “% Inhibition” value was -5% and the Z score came out at 0.63.
For `COc1nn(C)cc1C(=O)N1CC(Oc2nc3c(OC)cccc3s2)C1`, the “% Inhibition” value is on record as -21% and the Z score is on record as 2.42.
On to `CC(=O)N[C@@H]1CN(C(=O)NCCc2cc(F)ccc2F)C[C@H]1c1ccnn1C`, for which the “% Inhibition” value is -3% and the Z score came to 0.5.
On the same counts, the results for `Cc1cc(C)cc(NC(=O)CC(=O)N2CCn3c(C(N)=O)cnc3C2)c1` are -9% and 1.19.
For the molecule `CCOC(=O)CN1CCCC1C1CC(C)CCC1O` (stereo unspecified), the “% Inhibition” value is given as 1% and the Z score is given as -0.09.
On the same counts, the results for `COCCN1C[C@@H](Cc2cc(C(F)(F)F)ccn2)CC1=O` are -3% and 0.39.
Take `C[C@@H]1CN(C(=O)c2cc3ccccc3c(=O)[nH]2)C[C@H](C)O1`: the “% Inhibition” value is reported as -8% and the Z score came out at 0.79.
For the molecule `CCCCc1nnc(NCc2ccc3c(c2)CCO3)s1`, the “% Inhibition” value was -16% and the Z score came out at 2.5.
With `Cc1nn(-c2ccc(F)cc2)cc1-c1noc(C(=O)NCCCc2ccccc2)n1`, the “% Inhibition” value was -3% and the Z score came out at 0.38.
Turning to `O=C([C@@H]1CCCO1)N1CCN(c2ccc3ccc(F)cc3n2)CC1`, the “% Inhibition” value is -2% and the Z score stood at 0.27.
With `O=S(=O)(NCc1ccccc1)C1CC1`, the “% Inhibition” value is reported as -11% and the Z score is listed as 1.56.
Regarding `O=C(Nc1cccnc1-n1cccn1)C1C2CCCCC21` (stereo unspecified), the “% Inhibition” value is listed as 2% and the Z score is -0.22.
Taken in the same sequence, the figures for `CCN1CCO[C@@H](CNCc2cscn2)C1` were -14% and 1.41.
`CCOC(=O)[C@@]1(CCc2ccccc2)CCCN(C2CCN(Cc3ccccn3)CC2)C1`: the “% Inhibition” value is on record as -20% and the Z score was 2.73.
As for `Fc1cnc(N2CCCC3(C2)OCCO3)nc1`, the “% Inhibition” value is given as -7% and the Z score is listed as 0.65.
As for `CCN(C(=O)CN1Cc2c[nH]nc2[C@@H](C)C1)c1ccccc1`, the “% Inhibition” value worked out at 7% and the Z score is on record as -1.13.
Consider `Cc1noc2nc(C3CC3)cc(C(=O)Nc3ccncc3)c12`, for which the “% Inhibition” value turned out to be 19% and the Z score is listed as -3.29.
Regarding `O=S(=O)(c1cccs1)N1CCC[C@H](n2ccnn2)CC1`, the “% Inhibition” value was -1% and the Z score came out at 0.1.
On to `CC(=O)N1C[C@@H](O)C[C@@H]1C(=O)NC1(Cc2ccccc2)CCCC1`, for which the “% Inhibition” value is 1% and the Z score is on record as -0.15.
As for `COc1ccc2cc3c(nc2c1)N(C(=O)c1cccc(F)c1)CC3`, the “% Inhibition” value is -5% and the Z score is 0.52.
Taken in the same sequence, the figures for `CCN=C(N)NCc1ccccc1CC` were 1% and -0.11.
Turning to `O=C(NCCN(CCN1CCOCC1)C(=O)C1=CCCCO1)C1=CCCCO1`, the “% Inhibition” value is -8% and the Z score is reported as 0.91.
Take `CC(C)(C)NC(=O)C1CCN(C[C@@H]2CC=CCC2)CC1`: the “% Inhibition” value stood at 36% and the Z score was -0.92.
Take `O=C(N[C@H]1CCN(c2ccc(Cl)cc2Cl)C1)c1cnns1`: the “% Inhibition” value came to 5% and the Z score is listed as -0.96.
In the case of `O=C(C1CCCC1)N1CCN(c2nc3cc(Cl)ccc3c3nnc(Cc4ccccc4)n23)CC1`, the “% Inhibition” value is reported as 7% and the Z score is -1.19.
On to `Cc1nn(-c2ccc(Br)cc2)cc1-c1noc(C(=O)NC2CCCCCCC2)n1`, for which the “% Inhibition” value is listed as -18% and the Z score amounted to 2.34.
With `c1cc(N2CCOCC2)ccc1CN1CCCC2CCCC21` (stereo unspecified), the “% Inhibition” value is -8% and the Z score stood at 0.92.
Taken in the same sequence, the figures for `O=C1NCCCCCCN(Cc2ccc(F)c(F)c2)[C@H]2CCC[C@@H]12` were -8% and 1.09.
`COc1ccc(COCC(=O)NCC(C)(C)N2CCN(C)CC2)cc1`: the “% Inhibition” value was -5% and the Z score is on record as 1.09.
As for `O=S(=O)(c1cn[nH]c1)N1CCC([C@@H](O)CCc2ccccc2)CC1`, the “% Inhibition” value is on record as -10% and the Z score is 1.22.
Regarding `Cc1ccc(S(=O)(=O)N2CCN(S(=O)(=O)c3ccc(C)cc3)[C@@H](C)C2)cc1`, the “% Inhibition” value was -17% and the Z score was 2.16.
With `O=C(NCCN1CCCCC1)C(=O)Nc1cccc2nsnc12`, the “% Inhibition” value stood at 6% and the Z score is listed as -0.68.
With `Cc1ccc2nc(C(=O)N3CCC4(CC3)c3nc[nH]c3CCN4C)c(F)n2c1`, the “% Inhibition” value is -8% and the Z score is on record as 1.15.
For the molecule `CC(C)CN(C1CCOCC1)C1CN(C(=O)c2ccc3[nH]ccc3c2)C1`, the “% Inhibition” value amounted to 1% and the Z score was -0.22.
Consider `C[C@H](NC(=O)CN1CN(c2ccccc2)C2(CCN(C(=O)c3ccc(Cl)cc3)CC2)C1=O)c1ccccc1`, for which the “% Inhibition” value is recorded as 11% and the Z score is -1.18.
For `CC1(C)C(=O)N(Cc2ccccc2)CCN1C(=O)C[C@H](O)c1cccc(F)c1`, the “% Inhibition” value stood at 0% and the Z score is recorded as -0.05.
With `CN(CC(=O)Nc1cccc(F)c1)CC(=O)Nc1cc(C(F)(F)F)ccc1N1CCOCC1`, the “% Inhibition” value is on record as -3% and the Z score was 0.66.
Consider `CCc1nn2c(c1-c1ccc(C)c(S(=O)(=O)Nc3cccc(C)c3C)c1)NC(=O)CCC2=O`, for which the “% Inhibition” value is reported as -8% and the Z score turned out to be 0.96.
Taken in the same sequence, the figures for `CC[C@@H](C(=O)N1CCCc2ccccc21)n1cnc2onc(C)c2c1=O` were -7% and 1.01.
Taken in the same sequence, the figures for `Cc1nc(C2CC2)oc1C(=O)N(Cc1ccccc1)[C@@H](C)C(=O)O` were -2% and 0.4.

Broadly, the % Inhibition is the relative decrease from the control value, in per cent.
